From PubChem BioAssay AID1460 (National Center for Advancing Translational Sciences (NCATS), 2008)
In all, about 270,000 compounds went through this assay and about 5,800 (2.1%) were called active. Another 16% or so got no clear call; they are omitted. Calls follow the shape of the dose curve; as a rule, active = well fitted inhibition curve with a large enough effect; inconclusive = small, poorly fitted or top-dose-only effect; inactive = flat fitted curve, though single readings scatter. This is a selection; strong and weak results do not stand in their true shares. Some compounds were tested as several samples or in several runs, with calls that do not always agree.

These compounds were tested against Microtubule-associated protein tau (Homo sapiens) (UniProt P10636) (assay: qHTS for Inhibitors of Tau Fibril Formation, Thioflavin T Binding). Settings: recombinant tau K18 P301L (four-repeat tau fragment), heparin-induced fibrillization, ThT fluorescence; series mostly up to 57.4 µM; activity, negative = inhibition: at the top concentration.
Sequence of UniProt P10636 (P10636 whole entry, looked up, the tested form may be a part): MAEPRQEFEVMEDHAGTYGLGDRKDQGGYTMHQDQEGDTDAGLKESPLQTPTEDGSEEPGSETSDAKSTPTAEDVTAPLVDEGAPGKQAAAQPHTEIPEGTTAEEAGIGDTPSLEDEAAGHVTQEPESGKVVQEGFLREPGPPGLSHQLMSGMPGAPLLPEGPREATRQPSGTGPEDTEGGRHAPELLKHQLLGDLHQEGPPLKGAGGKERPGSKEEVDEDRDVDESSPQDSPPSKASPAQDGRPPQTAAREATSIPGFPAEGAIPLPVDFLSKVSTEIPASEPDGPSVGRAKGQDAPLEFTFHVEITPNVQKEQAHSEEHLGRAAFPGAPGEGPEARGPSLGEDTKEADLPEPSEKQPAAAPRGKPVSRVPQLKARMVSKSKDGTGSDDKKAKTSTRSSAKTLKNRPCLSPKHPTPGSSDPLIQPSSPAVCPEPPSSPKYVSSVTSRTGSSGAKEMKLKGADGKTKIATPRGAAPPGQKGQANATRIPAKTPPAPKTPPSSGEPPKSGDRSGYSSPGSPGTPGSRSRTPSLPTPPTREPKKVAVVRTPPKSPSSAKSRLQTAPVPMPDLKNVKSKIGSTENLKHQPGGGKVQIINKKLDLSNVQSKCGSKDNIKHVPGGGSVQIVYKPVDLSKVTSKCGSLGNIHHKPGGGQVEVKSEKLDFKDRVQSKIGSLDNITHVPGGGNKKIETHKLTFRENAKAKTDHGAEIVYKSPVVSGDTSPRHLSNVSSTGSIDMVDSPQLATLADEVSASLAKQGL
Outline: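 K18 P301L tau (15 uM + 0.24 uM Alexa 594-tagged), heparin 20 uM, NaOAc pH 7, 6 h 37 C; ThT 30 uM, 1 h RT, ex 450/em 510 nm.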
% is scaled to controls: 0 for no effect and ±100 for the full control effect; potency is read from the fitted curve at half-maximal effect.
Also: nearly all actives have a fitted effect of over 55% in size.

Row | SMILES | Potency | activity, negative = inhibition
1 | COC(=O)c1c(SCC(=O)Nc2ccccc2OC)[nH]c2ccccc2c1=O | active: 14.1 µM | 
2 | COn1c(C)c(C)c2c3nonc3ccc21 | active: 14.1 µM | 
3 | O=C1NC(=Nc2ccccc2)S/C1=C/c1cccnc1 |  | inactive: -9.88%
4 | COC(=O)[C@H](Cc1ccccc1)NC(=O)[C@]1(C)C[C@H]1[C@H](NC(=O)OCc1ccccc1)c1ccccc1 |  | inactive: -13.7%
5 | Cc1cc(C(=O)Nc2ccc(N3CCCC3)c(Cl)c2)ccc1[N+](=O)[O-] | active: 5.01 µM | 
6 | Cc1occc1C(=O)N/N=C/C(Br)=C\c1ccccc1 |  | inactive: -6.99%
7 | CC1(OC(=O)CCc2ccccc2)C(=O)C=C2C=C(c3ccc(C#N)cc3)N(Cc3ccco3)C=C2C1=O (stereo not given) |  | inactive: -14.9% [at 11.5 µM]
8 | CCn1c(COc2cccc(C)c2)nc2ccccc21 |  | inactive: 1.08%
9 | CCO[C@H]1OC(C(N)=O)=C[C@@H](C2CCCCC2)[C@@H]1CCCO |  | inactive: 3.54%
10 | Cc1cc([N+](=O)[O-])ccc1-c1ccc(C2Nc3ccccc3C(=O)N2O)o1 (stereo not given) | active: 14.1 µM | 
11 | CC[n+]1c(/C=C/C=C/N(C(C)=O)c2ccccc2)sc2cc(OC)ccc21 | active: 12.6 µM | 
12 | CC(C)[C@@H]1CC[C@@H](C)C[C@H]1OC(=O)C[n+]1cc(-c2ccc(Cl)cc2)n2c1CCCCC2 |  | inactive: -12.1%
13 | Cc1cccc(C(=O)N2CCC(=O)N([C@H](COCc3cccc(Cl)c3)Cc3ccccc3)CC2)c1 |  | inactive: -19.7%
14 | COCCCn1c(-c2ccc(S(=O)(=O)N3CCOCC3)cc2)csc1=Nc1ccccc1 |  | inactive: -2.64%
15 | CC(=O)n1cc([C@H]2C=C(C(=O)N3CCN(Cc4ccc5c(c4)OCO5)CC3)O[C@@H](OCc3ccc(CO)cc3)C2)c2ccccc21 |  | inactive: -4.01%
16 | CCOCCCNC1=C(Cl)C(=O)c2ccccc2C1=O | active: 15.8 µM | 
17 | CN1C(=O)C(O)(CC(=O)c2ccccc2O)c2cc(Br)ccc21 (stereo not given) |  | inactive: -20.6%
18 | O=C(C1=C[C@@H](c2csc3ccccc23)C[C@@H](OCCCCO)O1)N1CCN(Cc2ccc3c(c2)OCO3)CC1 |  | inactive: -11.8%
19 | Cc1cccc(C)c1Nc1c(-c2ccc(N3CCOCC3)cc2)nc2ncccn12 |  | inactive: -1.5%
20 | CNC(=S)N/N=C/c1ccc(N2CCOCC2)s1 | active: 17.8 µM | 
21 | COc1cc(OC)cc(C(=O)Nc2ccc3nc4c(c(Nc5ccc(OC)c(OC)c5)c3c2)CCCC4)c1 | active: 31.6 µM | 
22 | CCCCCCCCCCCCCCCC(O)C(N)CO (stereo not given) |  | inactive: -13.3%
23 | O=C(O)/C=C/c1ccc(O)c(O)c1 | inactive | 

Row | SMILES | Potency | activity, negative = inhibition
24 | CN1/C(=C\C(=S)NC(=O)c2cccc(Br)c2)C(C)(C)c2ccccc21 | active: 7.08 µM | 
25 | Cc1ccc2nc(N(CCCN(C)C)C(=O)c3ccco3)sc2c1 |  | inactive: -5.21%
26 | CCOc1cc(/C=C/c2ccc3cccc([N+](=O)[O-])c3n2)ccc1O | active: 14.1 µM | 
27 | COc1cccc(-c2cc(=O)c3cc(NC(=O)c4ccc(N(C)C)cc4)ccc3[nH]2)c1 |  | inactive: -6.41%
28 | CCNc1ccc(Br)cc(C(=O)/C=C/c2ccc(Cl)cc2Cl)c1=O | active: 15.8 µM | 
29 | Cc1cccc(C(=O)N2CCC(=O)N([C@H](COCc3ccc(Cl)cc3)Cc3ccccc3)CC2)c1 |  | inactive: -20.2%
30 | COc1ccc(C2(CNC(=O)/C=C/c3ccco3)CCCC2)cc1OC |  | inactive: -15.1%
31 | Cc1cccc(OCCNc2cc(N3CCN(CCO)CC3)ccc2[N+](=O)[O-])c1 | active: 28.2 µM | 
32 | Nc1ncnc2c1ncn2[C@@H]1O[C@H](CO)[C@@H](O)[C@H]1O | inactive | 
33 | C[C@@H](C(=O)NCCc1c[nH]c2ccccc12)[C@H]1C[C@]1(C)[C@H](NC(=O)OCc1ccccc1)c1ccccc1 |  | inactive: -17.1%
34 | O=C(Nc1cccc(F)c1)c1ccc(Br)o1 |  | inactive: -4.5%
35 | COc1cc([N+](=O)[O-])cc(/C=N\NC(=O)C2COc3ccccc3O2)c1O (stereo not given) | active: 10 µM | 
36 | COc1ccc2c(c1)O[C@H](c1ccc3c(c1)OCO3)[C@@H](OC(=O)Nc1cc(OC)c(OC)c(OC)c1)C2=O | inactive | 
37 | CNc1ccc(/C=C2\CSc3ccccc3C2=O)cc1[N+](=O)[O-] | active: 2.51 µM | 
38 | COc1cc(C2Oc3cc(C4Oc5cc(O)cc(O)c5C(=O)C4O)ccc3OC2CO)ccc1O (stereo not given) |  | inactive: 4.29%
39 | NC(=S)N/N=C/c1coc2cc(Br)ccc2c1=O | active: 15.8 µM | 
40 | Cc1ccc(CNC(=O)[C@H](C)[C@H]2C[C@]2(C)[C@H](NC(=O)OCc2ccccc2)c2ccccc2)o1 |  | inactive: -3.49%
41 | C[C@]12CC[C@@H]3c4ccc(O)cc4CC[C@H]3[C@@H]1CC[C@@H]2O | inactive | 
42 | CCCCC1=CC2=CC(=O)C(C)(OC(=O)CC)C(=O)C2=CN1Cc1ccco1 (stereo not given) |  | inactive: -10.7% [at 11.5 µM]
43 | COc1ccccc1C1=Nc2cccc3cccc(c23)N1 | active: 11.2 µM | 
44 | CCC/C=C(\CCC)C(NS(=O)(=O)c1ccc(C(F)(F)F)cc1)c1ccccc1 (stereo not given) |  | inactive: -17.7%
45 | CCOC(=O)c1cnc2ccc(OC)cc2c1NCCc1ccc(OC)c(OC)c1 |  | inactive: -15.6%
46 | CCN1/C(=C2/OC(=S)N(C)C2=O)Sc2ccccc21 |  | inactive: -9.98%

Row | SMILES | Potency | activity, negative = inhibition
47 | CSC(=NC#N)N1CCN(c2ccc([N+](=O)[O-])cc2)CC1 | active: 2 µM | 
48 | O=C(CCCN1C(=O)/C(=C\c2cccs2)SC1=S)NNC(=O)c1cccnc1 |  | inactive: -18.5%
49 | O=C1CSC(=S)N1/N=C/c1ccc(O)c(O)c1O | active: 3.55 µM | 
50 | C[C@@H](C(=O)NCc1ccccc1)[C@@H]1C[C@@]1(C)[C@@H](NC(=O)OCc1ccccc1)c1ccccc1 |  | inactive: 8.8%
51 | Fc1ccc(C(c2ccc(F)cc2)N2CCN(C/C=C/c3ccccc3)CC2)cc1 | inactive | 
52 | CCC1=C(OC(=O)N(CC)CC)N2C(=O)OC(=NCCc3c[nH]c4ccccc34)[C@]2(C)[C@H]2C1=CC[C@H]1C(=O)NC(=O)[C@H]12 |  | inactive: -13.2%
53 | COc1ccc(C2=NC(c3ccccc3)CO2)cc1 (stereo not given) |  | inactive: -15.3%
54 | Cc1ccc(C(=O)N2CCN(c3ccc([N+](=O)[O-])c(NCc4cccnc4)c3)CC2)cc1 | active: 12.6 µM | 
55 | N#Cc1ccc(C23CC4(C2)[C@H](CN(CC2CCCCC2)[C@@H]4c2ccccc2)C3c2ccc(C(F)(F)F)cc2)cc1 (stereo not given in full) |  | inactive: -0.341%
56 | O=C(O)c1ccc(NCc2nc3ccccc3n2CCOc2ccccc2Cl)cc1 |  | inactive: 3.1%
57 | COc1cc(/C=C/C(=O)c2ccc(C)c([N+](=O)[O-])c2)cc(OC)c1O | active: 6.31 µM | 
58 | CC(=O)SC1CC2=CC(=O)CC[C@@]2(C)C2CC[C@@]3(C)[C@@H](CC[C@@]34CCC(=O)O4)C12 (stereo not given in full) |  | inactive: -5.71%
59 | CCCCN1/C(=C/c2ccc3ccccc3[n+]2CC)Sc2ccccc21 | active: 14.1 µM | 
60 | CC1=NN(Cc2ccccc2)C(=O)/C1=C/c1ccc(N(C)C)cc1 |  | inactive: -8.5%
61 | CCCC(=O)n1nc(-c2cccnc2)nc1NCc1ccc(OC)cc1 |  | inactive: -16.2%
62 | COc1ccc([C@@H]2C[C@H](c3ccccc3)Oc3cc(C)cc(C)c32)cc1 |  | inactive: -0.535%
63 | Cc1ccccc1NC1=C/C(=N\S(=O)(=O)c2cccs2)c2ccccc2C1=O | active: 8.91 µM | 
64 | CC(=O)NC/C(C)=N\Nc1ccc([N+](=O)[O-])cc1 | active: 15.8 µM | 
65 | CSc1nnc(C)c(/C=C/Nc2ccc(C)cc2)n1 | active: 5.01 µM | 
66 | COc1ccc2c(c1OC)C(Cc1ccccc1)N1CCc3cc4c(cc3C1C2)OCO4 (stereo not given) | active: 15.8 µM | 
67 | COc1cc2c(cc1O)CCC1C2CC[C@@]2(C)C1CC[C@@H]2O (stereo not given in full) |  | inactive: -17%
68 | Cc1ccc(CS(=O)(=O)c2ncc(Cl)c(C(=O)Nc3nc4ccc(F)cc4s3)n2)cc1 | active: 14.1 µM | 
69 | CC1C/C(=C/c2ccncc2)C(=O)/C(=C/c2ccncc2)C1 (stereo not given) | active: 8.91 µM | 

Row | SMILES | Potency | activity, negative = inhibition
70 | COc1ccc(/C=C2\CCOC2=O)cc1 | inactive | 
71 | CC1(C)[C@@H]2CC[C@@]1(C)C(=O)C2 | inactive | 
72 | Cc1cc(C)[n+]2n1C(=O)C(c1ccccc1)=C2[O-] |  | inactive: -9.44%
73 | COC(=O)c1ccc(NC(=O)CN2CCN(c3ccc(Cl)cc3)CC2)cc1 |  | inactive: -14.8%
74 | CC1(C)OC(c2ccccc2)=C/C(=C/C=N/NC(=O)c2ccncc2)O1 |  | inactive: 11.2%
75 | COc1cccc(-c2nc(N3CCN(Cc4ccccc4)CC3)c3ccccc3n2)c1O |  | inactive: -9.25%
76 | CC1CC(C)CN(C(=O)c2ccc3c(c2NCCO)C(=O)c2ccccc2C3=O)C1 (stereo not given) | active: 17.8 µM | 
77 | COC(=O)CCC(=O)OC1(C)C(=O)C2=CN(CC3CC3)C(c3ccc(OC)cc3)=CC2=C(Br)C1=O (stereo not given) |  | inactive: -4.11% [at 11.5 µM]
78 | CCCCC(C)(O)C/C=C/[C@H]1[C@H](O)CC(=O)[C@@H]1CCCCCCC(=O)OC (stereo not given in full) |  | inactive: -4.63%
79 | C=CCN1c2ccccc2[C@]23C[C@@H](C(=O)OC)N(C(=O)c4cccs4)C2=NC(C(=O)OC)=C(C(=O)OC)[C@H]13 |  | inactive: 1.61% [at 11.5 µM]
80 | CC1=C(\C=C/C(C)=C/C=C\C(C)=C\C(=O)O)C(C)(C)CCC1 | inactive | 
81 | CC(=O)Nc1ccc(Nc2nc(C)c([N+](=O)[O-])c(N(C)c3ccccc3)n2)cc1 | active: 15.8 µM | 
82 | Cc1ccccc1NC(=O)Cn1c(=O)n(Cc2ccccc2)c(=O)c2c(C)c(C)sc21 |  | inactive: 8.97%
83 | Cc1ccc(NC(=O)c2ccc(N/N=C/c3cccc(O)c3)c([N+](=O)[O-])c2)cc1 | active: 1.58 µM | 
84 | O=C(CCCN1CC=C(n2c(=O)[nH]c3ccccc32)CC1)c1ccc(F)cc1 | inactive | 
85 | C=CC(C1=CC(=O)C=CC1=O)c1ccc(O)cc1 (stereo not given) | active: 28.2 µM | 
86 | CCOC(=O)CCn1nc(-c2ccc(C)cc2)c2ccccc2c1=O |  | inactive: -4.2%
87 | Cc1cc(NC(=O)Nc2cccc3ccccc23)no1 |  | inactive: -15.7%
88 | CC(=O)OC1C(=O)[C@@]2(C)C(O)CC3OC[C@]3(OC(C)=O)C2C(OC(=O)c2ccccc2)[C@]2(O)CC(OC(=O)C(O)C(NC(=O)c3ccccc3)c3ccccc3)C(C)=C1C2(C)C (stereo not given in full) |  | inactive: -6.35%
89 | COc1ccc2cc(CCC(C)=O)ccc2c1 |  | inactive: -12.4%
90 | Cc1ccccc1NC(=S)NC(NC(=O)COc1ccccc1)C(Cl)(Cl)Cl (stereo not given) | active: 14.1 µM | 
